Variants at the floor of the assay are shown more often than the library holds them.
B1: TPR 5TU (parent)
chain: GGAUCUUCUCGAUCUAACAAAAAAGACAAAUCUGCCACAAAGCUUGAGAGCAUCUUCGGAUGCAGAGGCGGCAGCCUUCGGUGGCGCGAUAGCGCCAACGUUCUCAACUAUGACACGCAAAACGCGUGCUCCGUUGAAUGGAGUUUAUCAUG

Variants of: B1
Assay: polymerase ribozyme fitness, log enrichment relative to wild type (log ratio); higher = more active; in vitro selection for triplet polymerase activity
In short: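 In triplicate, a single round of in vitro selection was run on each mutant library, PCR-built and transcribed, covering one subunit of a heterodimeric triplet polymerase ribozyme. Frozen incubation at −7 °C followed annealing with a biotinylated primer, partner subunit and triplets, and extended constructs were then gel-excised, streptavidin-captured and taken through RT-PCR. Fitness is the logarithm of genotype enrichment over wild-type enrichment, from inverse-variance-weighted replicate averages of Illumina-sequenced inputs and outputs. […] only genotypes with ≥10 input reads and ≥1 read per output were kept.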

| Variant | polymerase ribozyme fitness (log ratio) |
| --- | --- |
| U101G C118A G126A | -3.59 |
| C96A C105U A122U | 0.463 |
| C103G A120U | -1.5 |
| C93G G112A | ≤ -4.2 |
| G94C A122U G133U G140C G152U | ≤ -4.2 |
| A91G U145A | -3.07 |
| G92U U104G C132U | -2.5 |
| G94A G133C | -2.71 |
| G88U A106U | ≤ -4.2 |
| G88U A106G | -3.91 |
| C99U U102A | -1.33 |
| G88A U101G A107U | ≤ -4.2 |
| A89C C96U A97C C99U | -3.09 |
| U90C C95A U102A C132A | ≤ -4.2 |
| C93G C105A G136U | ≤ -4.2 |
| A97U U102A C123U U148G | ≤ -4.2 |
| U102G C103A C132U | ≤ -4.2 |
| G92A A120G A121C U148C | -4.16 |
| C96U U109C | -3.67 |
| G92C G100A A121U C132U U144C | ≤ -4.2 |
| C99U A107C G133U | ≤ -4.2 |

| Variant | polymerase ribozyme fitness (log ratio) |
| --- | --- |
| U101G A107U | -3.84 |
| G94A U101G | -0.0834 |
| C99G G126U | -0.93 |
| G88A G143U | ≤ -4.2 |
| G92A U101G C149U | -3.56 |
| C93G C103U A106C C118U U135G | ≤ -4.2 |
| G94A G124A A150U | 0.987 |
| C93U A107G C118G G133C | ≤ -4.2 |
| A97G A150C | -2.96 |
| A91C A115C | ≤ -4.2 |
| A97G A107G | -4.13 |
| G92U U148A | -2.71 |
| C93G A150G | -4.14 |
| U90A C99U C103G G140A | ≤ -4.2 |
| C95A C108G | ≤ -4.2 |
| G88U C108U U139A | ≤ -4.2 |
| A91G A97U G117C U135A U148A | ≤ -4.2 |
| C96A G124A | -0.328 |
| G92U A137G U151A | ≤ -4.2 |
| U104A | 0.0691 |
| U104C | 0.352 |

| Variant | polymerase ribozyme fitness (log ratio) |
| --- | --- |
| U104G | -0.299 |
| C95A C96A | -2.33 |
| A98G A115G U135G | -3.81 |
| G92A C108G | ≤ -4.2 |
| C93G A97G G140C A147U C149G | ≤ -4.2 |
| C93U C114U G141A | ≤ -4.2 |
| C93A U151G | ≤ -4.2 |
| C95G A97C | -0.47 |
| C95A G141C | 0.744 |
| G94A A110G | -2.35 |
| C93G A97U U145G | ≤ -4.2 |
| G88U G141U | -3.23 |
| A98U A110C | ≤ -4.2 |
| C95U G112A C125U U146G C149G | ≤ -4.2 |
| C93A U146G | -3.27 |
| U90A A106C A121U | ≤ -4.2 |
| A89U A150U | 1.51 |
| C96U G141C | -0.372 |
| G88C G92U C114U A137G | ≤ -4.2 |
| U90C C93G A97U U144C | ≤ -4.2 |
| C93U A113U A119C G140U | -3.82 |

| Variant | polymerase ribozyme fitness (log ratio) |
| --- | --- |
| U90G G94U A106U | ≤ -4.2 |
| C93G C108G | -3.9 |
| C95A | 0.441 |
| C95U | -0.031 |
| C96G C105U C116G A119U C132U | -1.57 |
| C103G A119C | -1.49 |
| U104A C105G | ≤ -4.2 |
| A107G U139C | ≤ -4.2 |
| C95A A121U U139G G141A | ≤ -4.2 |
| C96G C108A C123G | -3.69 |
| U90A C95U A121U U127A | ≤ -4.2 |
| A91C C95A C132U | ≤ -4.2 |
| G88U C99U | -4.12 |
| G88C C129A A137G | ≤ -4.2 |
| C93A A120U | -3.4 |
| C96G A97U | -1.83 |
| C96G A97G | -2.61 |
| U104G C125A U148A | ≤ -4.2 |
| C93A C95U | -3.37 |
| C99U C125U | 0.0952 |
| C93G C108G A142C C149U U151G | ≤ -4.2 |
